Results as given in EPA's CvTdb concentration-time database.
The source gives many values for each of these; only a part stands here.

Key:
Test in all cases: concentration in plasma after dosing
[1] = system: Rat; settings: dosed: Isoeugenol, 70 mg/kg, oral, Female, F344/N
[2] = system: Rat; settings: dosed: Isoeugenol, 140 mg/kg, oral, Female, F344/N
[3] = system: Rat; settings: dosed: Isoeugenol, 17 mg/kg, iv, Male, F344/N
[4] = system: Rat; settings: dosed: Isoeugenol, 17 mg/kg, iv, Female, F344/N
[5] = system: Rat; settings: dosed: Isoeugenol, 140 mg/kg, oral, Female, F344/N; remark: listed apart in the source
[6] = system: Rat; settings: dosed: Isoeugenol, 140 mg/kg, oral, Male, F344/N
[7] = system: Rat; settings: dosed: Isoeugenol, 140 mg/kg, oral, Female, F344/N; remark: listed apart in the source
[8] = system: Rat; settings: dosed: Isoeugenol, 140 mg/kg, oral, Female, F344/N; remark: listed apart in the source
[9] = system: Rat; settings: dosed: Isoeugenol, 17 mg/kg, iv, Male, F344/N; remark: listed apart in the source
[10] = system: Rat; settings: dosed: Isoeugenol, 140 mg/kg, oral, Female, F344/N; remark: listed apart in the source
[11] = system: Rat; settings: dosed: Isoeugenol, 70 mg/kg, oral, Female, F344/N; remark: listed apart in the source
[12] = system: Rat; settings: dosed: Perfluorohexane-1-sulphonic acid – potassium salt, 4 mg/kg, Female, F344
[13] = system: Rat; settings: 12 h; dosed: Perfluorohexane-1-sulphonic acid – potassium salt; 16 mg/kg; oral; Female; F344
[14] = system: Rat; settings: 12 h; dosed: Perfluorohexane-1-sulphonic acid – potassium salt; 16 mg/kg; oral; Female; Harlan Sprague Dawley
[15] = system: Rat; settings: dosed: Perfluorohexane-1-sulphonic acid – potassium salt, 16 mg/kg, oral, Female, Harlan Sprague Dawley
[16] = system: Rat; settings: 1200 h; dosed: Perfluorohexane-1-sulphonic acid – potassium salt; 16 mg/kg; oral; Male; Harlan Sprague Dawley
[17] = system: Rat; settings: dosed: Perfluorohexane-1-sulphonic acid – potassium salt, 32 mg/kg, oral, Female, Harlan Sprague Dawley
[18] = system: Rat; settings: 24 h; dosed: Perfluorohexane-1-sulphonic acid – potassium salt; 16 mg/kg; oral; Female; Harlan Sprague Dawley
[19] = system: Rat; settings: dosed: Perfluorohexane-1-sulphonic acid – potassium salt, 32 mg/kg, oral, Female, Harlan Sprague Dawley; remark: listed apart in the source
[20] = system: Rat; settings: dosed: Perfluorohexane-1-sulphonic acid – potassium salt, 4 mg/kg, Female, F344; remark: listed apart in the source
[21] = system: Rat; settings: dosed: Perfluorohexane-1-sulphonic acid – potassium salt, 4 mg/kg, oral, Female, Harlan Sprague Dawley
[22] = system: Rat; settings: dosed: Fluorotelomer alcohol 8+2, 24 mg/kg, oral, Male, Harlan Sprague Dawley
[23] = system: Rat; settings: 3 h; dosed: Fluorotelomer alcohol 8+2; 24 mg/kg; oral; Male; Harlan Sprague Dawley
[24] = system: Rat; settings: 9 h; dosed: Fluorotelomer alcohol 8+2; 80 mg/kg; oral; Female; Harlan Sprague Dawley
[25] = system: Rat; settings: dosed: Fluorotelomer alcohol 8+2, 48 mg/kg, oral, Male, Harlan Sprague Dawley
[26] = system: Rat; settings: dosed: Fluorotelomer alcohol 8+2, 40 mg/kg, oral, Female, Harlan Sprague Dawley
[27] = system: Rat; settings: dosed: Fluorotelomer alcohol 8+2, 40 mg/kg, oral, Female, Harlan Sprague Dawley; remark: listed apart in the source
[28] = system: Rat; settings: dosed: Fluorotelomer alcohol 8+2, 160 mg/kg, oral, Female, Harlan Sprague Dawley
[29] = system: Rat; settings: dosed: Fluorotelomer alcohol 8+2, 40 mg/kg, oral, Female, Harlan Sprague Dawley; remark: listed apart in the source
[30] = system: Rat; settings: dosed: Fluorotelomer alcohol 8+2, 80 mg/kg, oral, Female, Harlan Sprague Dawley
[31] = system: Rat; settings: 0.5 h; dosed: Fluorotelomer alcohol 8+2; 80 mg/kg; oral; Female; Harlan Sprague Dawley
[32] = system: Rat; settings: 3 h; dosed: Fluorotelomer alcohol 8+2; 80 mg/kg; oral; Female; Harlan Sprague Dawley
[33] = system: Rat; settings: 12 h; dosed: Fluorotelomer alcohol 8+2; 24 mg/kg; oral; Male; Harlan Sprague Dawley

C/C=C/c1ccc(O)c(OC)c1 [Isoeugenol]
Settings | concentration in plasma [µg/mL]
[1], 4 h | 0.545
[1], 10 min | 0.635
[2], 3 h | 0.75
[2], 5 min | 1.4
[3], 1.5 h | 0.164
[3], 10 min | 4.38
[4], 1 h | 0.256
[4], 2.5 h | 0.0905
[5], 1.5 h | 1.24
[5], 3 h | 1.32
[6], 1.5 h | 0.463
[6], 3 h | 0.453
[7], 2 min | 0.374
[7], 10 h | 0.0443
[8], 2 h | 0.395
[8], 5 min | 7.62
[9], 0.75 h | 0.405
[9], 3 h | 0.032
[10], 2 min | 0.224
[10], 8 h | 0.254
[11], 3 h | 0.223
[11], 5 min | 1.17

O=S(=O)([O-])C(F)(F)C(F)(F)C(F)(F)C(F)(F)C(F)(F)C(F)(F)F.[K+] [Perfluorohexane-1-sulphonic acid – potassium salt]
Settings | concentration in plasma
[12], 0.5 h | 43300 ng/mL
[12], 12 h | 24200 ng/mL
[12], 1200 h | 6230 ng/mL
[15], 1 h | 74400 ng/mL
[15], 528 h | 61.1 ng/mL
[17], 1 h | 46600 ng/mL
[17], 24 h | 86300 ng/mL
[17], 288 h | 1980 ng/mL
[19], 6 h | 172 µg/mL
[19], 96 h | 27.8 µg/mL
[20], 3 h | 28000 ng/mL
[20], 96 h | 4120 ng/mL
[21], 3 h | 21900 ng/mL
[21], 48 h | 13500 ng/mL
[21], 528 h | 32.6 ng/mL

Settings | concentration in plasma
[13] | 134 µg/mL
[14] | 79.3 µg/mL
[16] | 11100 ng/mL
[18] | 61.1 µg/mL

O=C(O)CCC(F)(F)C(F)(F)C(F)(F)C(F)(F)C(F)(F)C(F)(F)C(F)(F)F [Fluorotelomer acid 7+3]
Settings | concentration in plasma [ng/mL]
[22], 5 min | 0.605
[22], 9 h | 340
[25], 0.5 h | 202
[25], 9 h | 500
[26], 0.25 h | 81.4
[26], 6 h | 2030
[27], 0.5 h | 371
[27], 9 h | 1390
[28], 0.75 h | 1220
[28], 12 h | 7150
[29], 0.75 h | 828
[29], 12 h | 1470
[30], 0.25 h | 75
[30], 24 h | 1540

Settings | concentration in plasma [ng/mL]
[23] | 1620
[24] | 3080
[31] | 830
[32] | 8360
[33] | 497
